The supplement of paper PMC9446081
In all, about 39,000 compounds went through this assay and about 220 (0.56%) showed activity. The list shows a part of the results.

Each compound was assayed on Escherichia coli K-12 BW25113 (assay: relative growth (OD600 normalised to plate interquartile mean) (fraction); higher = less growth inhibition, active = 0.2 or less). Settings: 50 µM; LB; incubation time: overnight (16-24 h).
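Note: static incubation at 37 °C against the wild-type strain, values averaged over two biological replicates.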

Structure (SMILES) | relative growth
COc1ccccc1C#Cc1cnc2c(c1)C(=O)N([C@H](C)CO)C[C@@H](C)[C@H](CN(C)C(=O)CC1CC1)O2 | inactive: 1.04
COc1ccc(S(=O)(=O)N(C)C[C@H]2Oc3ccc(NS(=O)(=O)c4c(C)noc4C)cc3C(=O)N([C@@H](C)CO)C[C@H]2C)cc1 | inactive: 0.993
Cc1noc(C)c1S(=O)(=O)Nc1ccc2c(c1)C(=O)N([C@@H](C)CO)C[C@@H](C)[C@H](CN(C)C(=O)Nc1ccc(F)cc1)OCCCC[C@H](C)O2 | inactive: 1.03
COCC#Cc1cnc2c(c1)C(=O)N([C@@H](C)CO)C[C@H](C)[C@@H](CN(C)C(=O)Nc1ccc(OC)cc1)O2 | inactive: 0.985
C[C@@H]1CN([C@@H](C)CO)C(=O)c2cc(NC(=O)NC3CCCCC3)ccc2O[C@H]1CN(C)Cc1ccc(C(=O)Nc2ccccc2N)cc1 | inactive: 1.01
COc1ccc(S(=O)(=O)N2c3ccc(Cl)cc3[C@](O)(c3ccccc3Cl)[C@@H]2C(=O)N2CCC[C@H]2C(N)=O)cc1OC | inactive: 1.02
Cn1cnc(S(=O)(=O)N2C[C@H](O)COC[C@@H]3O[C@@H](CC(=O)NCc4ccc(F)cc4)CC[C@H]32)c1 | inactive: 0.99
COc1ccc(NC(=O)Nc2ccc3c(c2)C(=O)N([C@@H](C)CO)C[C@@H](C)[C@H](CN(C)S(=O)(=O)c2ccccc2)OCCCC[C@H](C)O3)cc1 | inactive: 1.02
C[C@H](CO)N1C[C@H](C)[C@@H](CN(C)Cc2ccc(-c3ccccc3)cc2)Oc2ccc(NS(=O)(=O)c3ccccc3)cc2CC1=O | inactive: 0.995
NC(=O)CC1=NC(=O)CS1 | inactive: 1.02
O=C(C[C@H]1CC[C@H]2[C@@H](COC[C@@H](O)CN2S(=O)(=O)c2ccc(Cl)cc2)O1)NCC1CCCCC1 | inactive: 0.99
CO[C@H]1CN(C)C(=O)c2ccc(NC(=O)Nc3cccc(Cl)c3)cc2OC[C@H](C)N(C(=O)Nc2c(C)noc2C)C[C@H]1C | inactive: 0.986
C[C@@H]1CCCCO[C@@H](CN(C)C(=O)Nc2ccc3c(c2)OCO3)[C@H](C)CN([C@H](C)CO)C(=O)c2cc(NS(=O)(=O)c3ccc(F)cc3)ccc2O1 | inactive: 1.01
COc1ccc(S(=O)(=O)Nc2cccc3c2O[C@H](CN(C)S(=O)(=O)c2c(C)noc2C)[C@H](C)CN([C@@H](C)CO)C3=O)cc1 | inactive: 0.981
CCC(=O)N[C@@H]1CC[C@H](CC(=O)OC)O[C@H]1CO | inactive: 0.989
C[C@@H]1CN([C@@H](C)CO)C(=O)c2cc(NC(=O)CCN3CCOCC3)ccc2O[C@@H]1CN(C)Cc1ccccc1 | inactive: 1
C[C@@H]1CCCCO[C@H](CN(C)C(=O)c2ccccc2)[C@@H](C)CN([C@@H](C)CO)C(=O)c2cc(NS(=O)(=O)c3ccccc3)ccc2O1 | inactive: 0.956
O=C(C[C@H]1C[C@H]2c3cc(NS(=O)(=O)c4ccc(F)cc4)ccc3O[C@H]2[C@H](CO)O1)NC1CCCCC1 | inactive: 1

Structure (SMILES) | relative growth
CCC(=O)NCc1nc(C)cc(N(C)C)n1 | inactive: 1.04
COc1ccc2c3c([nH]c2c1)[C@@H](CO)N(C[C@]13CCN(CC1)C(=O)c1ccncc1)C(=O)c1ccncc1 | inactive: 1
C[C@H](CO)N1C[C@H](C)[C@H](CN(C)Cc2ccncc2)OCCCC[C@H](C)Oc2ccc(NC(=O)Nc3ccc4c(c3)OCO4)cc2C1=O | inactive: 1.01
CCCN(C)C[C@H]1OCCCC[C@@H](C)Oc2ccc(NC(=O)c3ccccc3)cc2C(=O)N([C@@H](C)CO)C[C@H]1C | inactive: 1.02
C[C@@H]1CN([C@H](C)CO)C(=O)c2cccc(NC(=O)C3CC3)c2O[C@H]1CN(C)Cc1ccc2c(c1)OCO2 | inactive: 0.987
O=C1NCCOc2ccc([N+](=O)[O-])cc21 | inactive: 0.984
C=CCOC(=O)[C@@H]1[C@H]2C(=O)O[C@H](c3ccccc3)[C@H](c3ccccc3)N2[C@H](c2ccc(OCCOC(=O)[C@@H]3C[C@@H]4C(=O)N[C@@H](CCCCNC(C)=O)C(=O)N4[C@@H]3c3ccc(O)cc3)cc2)[C@@]12C(=O)Nc1ccccc12 | inactive: 1.06
C[C@@H]1CN([C@@H](C)CO)C(=O)c2cc(C3=CCCCC3)cnc2O[C@H]1CN(C)C(=O)CN1CCOCC1 | inactive: 0.99
Cc1ccc(-c2noc([C@H](C)c3ccc(CC(C)C)cc3)n2)cc1 | inactive: 0.915
Cc1ccc(S(=O)(=O)N(C)C[C@@H]2OCCCC[C@H](C)Oc3ccc(NC(=O)Nc4ccccc4)cc3C(=O)N([C@@H](C)CO)C[C@@H]2C)cc1 | inactive: 0.934
Cc1occc(=O)c1O | inactive: 0.98
COc1cccc(NC(=O)N(C)C[C@@H]2Oc3cc(Br)ccc3S(=O)(=O)N([C@@H](C)CO)C[C@H]2C)c1 | inactive: 1.02
C[C@H]1CN([C@@H](C)CO)C(=O)c2cccc(NC(=O)C3CCOCC3)c2O[C@@H]1CN(C)S(=O)(=O)c1ccccc1 | inactive: 1.03
C[C@H](CO)N1C[C@H](C)[C@H](CN(C)CC2CC2)OCCCC[C@H](C)Oc2ccc(NC(=O)Nc3ccc(C(F)(F)F)cc3)cc2C1=O | inactive: 0.968
C[C@@H]1CN([C@@H](C)CO)C(=O)c2cc(NC(=O)c3ccncc3)ccc2O[C@@H](C)CCCCO[C@@H]1CN(C)C(=O)C1CCCCC1 | inactive: 1.01
O=C(C[C@@H]1C[C@@H]2c3cc(NC(=O)Cc4ccncc4)ccc3O[C@@H]2[C@H](CO)O1)NCc1ccc2c(c1)OCO2 | inactive: 1.01
CCCNC(=O)Nc1ccc2c(c1)C(=O)N(C)C[C@@H](OC)[C@H](C)CN(Cc1ccc(-c3ccccn3)cc1)[C@@H](C)CO2 | inactive: 0.994
CO[C@H]1C[C@H](O[C@H]2[C@H](C)O[C@@H](O[C@@H]3/C(C)=C/C[C@@H]4C[C@@H](C[C@]5(C=C[C@H](C)[C@@H](C6CCCCC6)O5)O4)OC(=O)[C@@H]4C=C(C)[C@@H](O)[C@H]5OC/C(=C\C=C\[C@@H]3C)[C@]54O)C[C@@H]2OC)O[C@@H](C)[C@@H]1O | inactive: 0.95
